Assay results published in patent US20260139067A1 (BETH ISRAEL DEACONESS MEDICAL CENTER, published 2026).

Biological target: T1, recombinant cynomolgus monkey CDCP1 extracellular domain (cynomolgus monkey, UniProt A0A2K5VLA8 30-663)
T1 construct: range 30-663; also called cyno CDCP1 ECD; cynomolgus monkey CDCP1-ECD
Assay: SPR (Biacore T200), antibody captured on anti-human IgG, CDCP1-ECD injected; experiment 2
Description: Specifically, the binding kinetics of anti-CDCP1 antibodies against recombinant human, cynomologus monkey and mouse CDCP1-ECD were determined using surface plasmon resonance (SPR) and a Biacore T200 instrument (GE Healthcare). An anti-human IgG antibody was amine coupled onto a CM5 carboxymethylated dextran sensor chip surface (GE Healthcare), using the manufacturer's recommendations, to densities of approximately 10,000-13,000 response units (RU). Each anti-CDCP1 antibody was diluted to 0.5 μg/mL in 10 mM HEPES pH 7.4, 0.15 M NaCl, 3 mM EDTA, 0.05% P-20 (HBS-EP+) and captured for about 20-23 seconds at a flow rate of 10 μL/min. […] The sensorchip surface was regenerated with three 30 second pulses of 3M MgCl₂ at a flow rate of 50 μL/minute. All injections used HBS-EP+ as both the running and sample buffer and were performed at 25° C. with a data collection rate of 1 Hz. Sensorgrams were double referenced by using both a control surface and buffer injections. Rate constants were determined by fitting the data to a 1:1 model with Biacore T200 evaluation software v3.0 and the equation KD=kd/kₐ.

T1 sequence (A0A2K5VLA8 entry or part of it): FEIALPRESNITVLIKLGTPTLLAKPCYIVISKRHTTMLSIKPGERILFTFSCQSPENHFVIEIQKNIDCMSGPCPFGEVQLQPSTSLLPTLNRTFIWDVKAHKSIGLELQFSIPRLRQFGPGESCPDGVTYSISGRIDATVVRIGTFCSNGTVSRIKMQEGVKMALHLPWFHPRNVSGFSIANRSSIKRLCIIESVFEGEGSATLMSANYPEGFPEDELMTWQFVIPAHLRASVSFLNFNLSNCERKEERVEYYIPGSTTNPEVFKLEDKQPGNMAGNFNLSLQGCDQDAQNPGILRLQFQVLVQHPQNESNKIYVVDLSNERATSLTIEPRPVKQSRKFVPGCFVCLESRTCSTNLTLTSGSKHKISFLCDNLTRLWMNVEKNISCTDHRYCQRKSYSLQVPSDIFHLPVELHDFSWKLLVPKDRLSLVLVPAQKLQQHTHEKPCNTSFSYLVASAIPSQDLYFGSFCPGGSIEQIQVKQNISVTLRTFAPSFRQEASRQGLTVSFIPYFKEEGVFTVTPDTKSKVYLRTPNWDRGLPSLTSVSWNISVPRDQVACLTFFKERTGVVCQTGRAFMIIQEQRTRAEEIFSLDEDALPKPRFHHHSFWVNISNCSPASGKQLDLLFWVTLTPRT

B1: CP13E10-54HC-89LCv1 (antibody, human IgG1, kappa)
heavy: EVQLVQSGAEVKKPGASVKVSCKASGYTFTSYYMHWVRQAPGQGLEWMGIINPSGGSTSYAQKFQGRVTMTRDTSTSTVYMELSSLRSEDTAVYYCARDGELRHFDHLLDYHYYMDVWGQGTTVTVSS[left out - human IgG1 constant region]
light: EIVMTQSPATLSLSPGERATLSCRASQSVGSYLAWYQQKPGQAPRLLIYDASNRATGIPARFSGSGSGTDFTLTISSLQPEDFAVYYCQQRAQEFTFGQGTKVEIKRTVAAPSVFIFPPSDEQLKSGTASVVCLLNNFYPREAKVQWKVDNALQSGNSQESVTEQDSKDSTYSLSSTLTLSKADYEKHKVYACEVTHQGLSSPVTKSFNRGEC
notes: Human IgG1, kappa; also called germlined CP13E10-54HC-89LCv1
Kd: 69.5 nM
